# Laboratory results taken from the supplement of paper PMC3334620.
# Over roughly 33,000 sequences, “E-score (-0.5 to 0.5)” has its median near -0.035; the highest 2% begin near 0.34. The list shows a part of the results.
# Molecular target: T1, Mot3 (UniProt P54785)
# T1 sequence: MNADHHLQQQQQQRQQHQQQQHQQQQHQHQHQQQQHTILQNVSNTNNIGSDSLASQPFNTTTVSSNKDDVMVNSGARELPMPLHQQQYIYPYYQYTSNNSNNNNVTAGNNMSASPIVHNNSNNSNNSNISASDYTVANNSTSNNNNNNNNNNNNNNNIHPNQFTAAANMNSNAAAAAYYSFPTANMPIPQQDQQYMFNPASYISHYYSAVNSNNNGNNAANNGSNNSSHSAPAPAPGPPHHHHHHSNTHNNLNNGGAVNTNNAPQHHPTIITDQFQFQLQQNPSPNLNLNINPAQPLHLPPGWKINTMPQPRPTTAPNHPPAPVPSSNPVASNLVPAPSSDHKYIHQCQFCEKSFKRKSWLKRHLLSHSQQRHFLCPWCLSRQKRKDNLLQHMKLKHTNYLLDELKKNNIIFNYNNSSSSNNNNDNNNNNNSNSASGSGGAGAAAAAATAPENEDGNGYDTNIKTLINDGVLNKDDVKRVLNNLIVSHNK
# Assay: PBM E-score (8-mer binding enrichment) (E-score (-0.5 to 0.5)); higher = stronger / more preferred TF binding; most listed sequences are background and not binding sites
# Conditions: protein concentration: 200 nM; construct: GST-full length
# How it was run: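 E-scores (a modified Wilcoxon-Mann-Whitney statistic) were assigned by the Universal PBM Analysis Suite to every ungapped eight-base word pooled with its reverse complement. The input came from universal all-10-mer Agilent arrays made double-stranded by primer extension and probed with GST-tagged yeast transcription factors at about 100-200 nM. Fluorescent anti-GST detected bound protein, and masliner normalised the scans.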
row,Sequence,PBM E-score
1,CTTCAGGC,0.297
2,ACTTTGCT,-0.0166
3,CGGGTTAC,-0.108
4,GCGGATTA,-0.0721
5,GCTGCAGC,-0.254
6,TAAGGTAA,0.306
7,AATTCGGC,-0.0489
8,GCCTTTAA,0.322
9,GAGAGAGA,-0.277
10,CGTCATAC,0.0576
11,GCTTCGAA,0.0759
12,ATATGTGG,-0.0502
13,CTGCGCGA,-0.157
14,AGACAACT,0.00541
15,GAGAACCA,-0.0588
16,CCCCCACC,-0.396
17,ATACTCTC,-0.0192
18,CACGGGAA,-0.0334
19,ACCATGGT,0.0854
20,CGGTCGTC,-0.31
21,CCCCTTTA,0.0425
22,ACTCTGAG,0.0608
23,CCCAGACG,-0.154
24,GGCGGAAA,-0.129
25,CCTAGGTA,0.109

row,Sequence,PBM E-score
1,AGGCTCAG,0.24
2,CGGGAAAC,-0.0422
3,ATACCCCC,-0.268
4,ACTTCATG,-0.0568
5,CACCCGTA,-0.258
6,ATCGTCCG,0.109
7,AAATTCAT,0.117
8,ACGCGCCG,0.0455
9,AATCCATG,0.133
10,AACAGTTA,0.102
11,CCGCGAAC,-0.209
12,AGAGGAGC,-0.11
13,CCGTAACC,-0.177
14,ATTGCAGA,-0.0312
15,ATCTCTTG,-0.0945
16,CTCCCATA,-0.0967
17,GCTACGCC,-0.179
18,GAGGGAAA,-0.199
19,AGGGCACT,0.0516
20,CCTCATGC,-0.0978
21,CACCCTGG,-0.253
22,ACAGCCAC,-0.0458
23,TGAACCCA,-0.127
24,CAGTCGCC,-0.277
25,AGTTTTTA,0.0728

row,Sequence,PBM E-score
1,AGGAAGCA,-0.0622
2,AGATTCAT,0.0532
3,CGTAGAAA,0.314
4,GAAACTTA,0.157
5,AGCCGGAT,-0.356
6,CACAACAA,0.252
7,AATCTGGT,0.199
8,CGTACTAC,0.134
9,AAACTTTA,0.19
10,CAAGTGGA,-0.0962
11,CCTGAGGA,-0.0567
12,ACACCCGC,-0.0189
13,AAGTATTA,0.0795
14,GACCAAAC,-0.17
15,TAGTCCGA,-0.0853
16,GCTCAGCA,-0.0533
17,CTTACACC,0.0678
18,AGCCCTAT,-0.16
19,AAAAACAT,0.172
20,CTTGGACA,-0.0991
21,ACCCCTAC,0.0767
22,AATAGGTG,0.0976
23,AGATGGAA,-0.113
24,AATTTAGT,0.101
25,TGCGGCCA,-0.155

row,Sequence,PBM E-score
1,GTGGTTGA,-0.0344
2,GAGGATCA,-0.0459
3,CGAGCAGC,-0.0701
4,CCAAATGG,-0.18
5,CGGTTCGC,-0.207
6,AAGGCGTA,0.141
7,AGTCAGGG,-0.269
8,AGCCTTGC,0.0701
9,ACTATGTC,0.104
10,ATAGGCTG,-0.0765
11,GCTTCGAC,-0.148
12,ACGTAGGG,-0.0716
13,ACTGTGCA,-0.0432
14,CGAGGTTA,0.073
15,CCTTTTTA,0.291
16,TGAGGCCA,0.0399
17,CGTAAATC,0.143
18,AGCCTACG,0.18
19,CATTGGAC,-0.204
20,TAACATGA,0.363
21,AAGCTTAC,-0.0547
22,TCGGTGAA,0.0157
23,CAGTGCTC,-0.125
24,ATTAAGCA,-0.0855
25,CGCCCTGC,-0.234

row,Sequence,PBM E-score
1,GAGGGAGA,-0.281
2,AAAACCTC,-0.0354
3,ATAGTAAG,-0.0818
4,CACGTACA,0.266
5,AGTCCGCC,-0.263
6,GATTTAGA,-0.0125
7,CGCAACCG,-0.32
8,GACTTCGA,-0.0506
9,GCGAGTTA,0.0884
10,CAGCTTCG,-0.0338
11,AATCTATA,0.123
12,ATAGGATG,-0.0878
13,AAGCGTAC,0.0717
14,CGGGGTGA,-0.187
15,AGCGAGGC,-0.151
16,GGACTGTA,0.0675
17,ACATCGCT,0.0611
18,CGGCAAAC,-0.217
19,ACTCGGGG,-0.29
20,AGGCAGAT,0.0714
21,AATGCGGT,-0.155
22,CCTCCAGA,-0.0591
23,AGGTTCCA,-0.196
24,GGACCACA,-0.128
25,CGTTTTAG,-0.00668

row,Sequence,PBM E-score
1,ACGAAGTA,0.0208
2,AAAGTGTT,0.246
3,GCTCAGGA,0.126
4,ACGACAGG,0.147
5,AGGTTCGC,-0.0542
6,AATATGTA,0.277
7,ACTCACCC,-0.299
8,ACTCCGCC,-0.292
9,TAGAACGA,0.137
10,ATACACCC,-0.0606
11,CAAGTGAA,0.0267
12,TGAACGAA,-0.0491
13,TAAATGCA,0.0257
14,ATCATTGG,-0.0992
15,CATCCCTC,-0.096
16,TAATTAAA,0.14
17,GGAGTCCA,-0.101
18,CAACGGCG,-0.15
19,AGTGTTGC,0.0603
20,AGTCAGAG,-0.26
21,TAATCGCA,0.113
22,AAGAGAAG,0.0573
23,AGCGTTGC,0.0285
24,TTAGTCAA,-0.0261
25,ATGCTCGG,-0.156

row,Sequence,PBM E-score
1,AGGTCAGA,-0.3
2,AAGTGGAT,-0.0844
3,AAACGTCT,0.0253
4,CGTTGTCA,-0.048
5,CTCCCGGC,-0.216
6,CGGGTGGC,-0.223
7,AGGCTTTG,-0.124
8,CCGTGACA,-0.105
9,AGGTCATG,-0.194
10,GTATCTGA,0.0923
11,GATCTGTA,-0.0261
12,CTCTGCTC,-0.218
13,AGCTTAAT,-0.0327
14,CGTTGAAG,0.116
15,ACAGGGGA,-0.0298
16,AGTCAGCA,0.128
17,CCTTGTCC,-0.118
18,TACGTGGA,0.0343
19,ATACTTGC,0.17
20,GCGAGTAC,0.102
21,CCTCTAGA,-0.0256
22,ATACTTCC,-0.0416
